About 5,000 (1.2%) of roughly 410,000 compounds were called active. The shares of active, inactive and inconclusive entries below differ from those in the screen. Calls follow the shape of the dose curve; as a rule, active = well fitted inhibition curve with a large enough effect; inconclusive = small, poorly fitted or top-dose-only effect; inactive = no such curve, though single readings can be large or run the other way. Potencies of inconclusive entries are doubtful fits and often do not repeat.
Assay: qHTS for Inhibitors of TGF-b; also: nearly all actives have a fitted effect of over 65% in size
Settings: HepG2 CAGA-GFP TGF-b/SMAD3 reporter, GFP fluorescence, 18 h, TGF-beta stimulated, 500 pg/mL final; series mostly up to 46.1 µM; activity, negative = inhibition: at the top concentration
Method in brief: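 Inhibition of TGF-beta-driven CAGA-GFP reporter expression in HEPG2 cells is measured by cellular GFP fluorescence after 18 h stimulation with 500 pg/mL recombinant TGF-beta in 1% FBS medium at 37 degrees C.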
In the case of CC(C)c1ccc(S(=O)(=O)N2CCN(CCC(=O)Nc3ccc(N(C)C)cc3)CC2)cc1, the Potency is reported as inconclusive: 31.6 µM [inhibitor, single point].
In the case of CC(C)CCN1CCNC(=O)C1CC(=O)N(C)CCCN1CCOCC1 (configuration not stated), the Potency is reported as inconclusive: 6.31 µM [inhibitor, single point].
With N#C/C(=C\c1cccs1)C(=O)Nc1nccs1 the “activity, negative = inhibition” value was inactive: -8.43%.
For CCCOc1ccc(CNC(=O)C2CCN(c3nc4ccccc4nc3C(F)(F)F)CC2)cc1, the Potency was inconclusive: 1.12 µM [inhibitor, full curve, poor fit].
In the case of Nc1c(Br)cc2c([nH]c(=O)c3ccccc32)c1Br, the Potency is reported as inconclusive: 35.5 µM [inhibitor, single point].
With CCN(CC(=O)Nc1ccccc1C(F)(F)F)C(=O)CN1C(=O)NC(C)(c2ccc3ccccc3c2)C1=O (configuration not stated) the “activity, negative = inhibition” value was inactive: -5.14%.
In the case of CN(Cc1cccs1)c1nc(-c2cccnc2)nc2ccccc12, the Potency is reported as active: 14.1 µM.
In the case of COc1ccc(OC)c(-c2cc(C3CCN(c4cc(Cl)nc(N)n4)CC3)[nH]n2)c1, the Potency is reported as inconclusive: 20 µM [inhibitor, single point].
With COc1ccc(C(C(=O)NC(C)(C)C)N(C(=O)CCC(=O)Nc2cc(C)on2)c2ccccc2F)cc1 (configuration not stated) the “activity, negative = inhibition” value was inactive: -1.66%.
With O=C(NCCN1C(=O)C2C3C=CC(C3)C2C1=O)NCc1ccccc1 (configuration not stated) the Potency was inconclusive: 35.5 µM [inhibitor, single point].
For COc1ccc(Cl)cc1NC(=O)CN1c2ccccc2S(=O)(=O)c2ccccc21, the Potency was inconclusive: 3.16 µM [inhibitor, full curve].
In the case of CCN(CC)CCNC(=O)c1ccc(-n2c(C)cc3c2CCCC3=O)cc1, the “activity, negative = inhibition” value is reported as inactive: 8.65%.
With COc1ccc(OC)c(NC(=O)C2CCCN(S(=O)(=O)c3c(C)noc3C)C2)c1 (configuration not stated) the “activity, negative = inhibition” value was inactive: 0.905%.
For O=C(/C=C/c1ccc(Cl)cc1)NC(=S)Nc1ccccc1C(=O)O, the Potency was inconclusive: 22.4 µM [inhibitor, single point].
For CCOC(=O)c1c(CSC(=N)N)n(-c2ccc(C)cc2)c2cc(Br)c(OC(C)=O)cc12, the Potency was active: 22.4 µM.
In the case of COc1cccc(-c2cc(C(=O)NC3CCCC3)c3ccccc3n2)c1, the “activity, negative = inhibition” value is reported as inactive: -4.65%.
For OC(c1ccc(Cl)c(F)c1)c1ncc(-c2cccc(C(F)(F)F)c2)[nH]1 (configuration not stated), the Potency was inconclusive: 35.5 µM [inhibitor, single point].
For Cc1ccccc1C(=O)N1CCN(c2ccc([N+](=O)[O-])c(NCc3cccnc3)c2)CC1, the “activity, negative = inhibition” value was inactive: 4.24%.
In the case of Cc1ccc(C2Nc3ccccc3NC3=C2C(=O)OC(C)C3)cc1 (configuration not stated), the “activity, negative = inhibition” value is reported as inactive: 0.787%.
For COc1cncc(-c2cnc3sc(NCCc4ccccn4)nn23)c1, the Potency was active: 7.94 µM.
For CCC(=O)N1CCN(c2ccccc2NC(=O)Cc2ccc(Cl)cc2)CC1, the Potency was inconclusive: 17.8 µM [inhibitor, single point].
For O=C(CN1C(=O)NC2(CCCCCC2)C1=O)N1CCC(Cc2ccccc2)CC1, the “activity, negative = inhibition” value was inactive: 2.57%.
With CC(C)C1C(=O)N(Cc2cn(Cc3ccco3)nn2)CCS(=O)(=O)N1Cc1ccc(-c2cccc(N(C)C)c2)cc1 (configuration not stated) the “activity, negative = inhibition” value was inactive: 8.17%.
With Cc1cccc(N2CCN(C(=O)CCNC(=O)Cn3ccc4ccccc4c3=O)CC2)c1C the “activity, negative = inhibition” value was inactive: -5.34%.
In the case of CC(C)CC(N)c1csc(NC(=O)Nc2ccccc2Cc2ccccc2)n1 (configuration not stated), the Potency is reported as inconclusive: 35.5 µM [inhibitor, single point].
In the case of O=C(Nc1ccc(-c2cn3cccnc3n2)cc1)c1ccccc1F, the Potency is reported as inconclusive: 15.8 µM [inhibitor, single point].
In the case of Cc1cc(Nc2ccccc2Cl)c2ccccc2n1, the Potency is reported as inconclusive: 35.5 µM [inhibitor, single point].
For COc1ccc(/C=C2\SC(N3CCc4ccccc4C3)=NC2=O)cc1OC, the “activity, negative = inhibition” value was inactive: -22.4%.
For CC1(C)CC(=O)c2cc(C(=O)Nn3cnnc3)c(=O)n(-c3ccccc3)c2C1, the Potency was inconclusive: 3.16 µM [inhibitor, single point].
With COc1cccc(C(=O)Nc2nc(-c3ccccc3)c(-c3ccccc3)o2)c1 the Potency was inconclusive: 20 µM [inhibitor, partial curve, poor fit].
With COc1ccc(C2N(c3cccc(Cl)c3)C(=O)C3CCCN32)cc1 (configuration not stated) the Potency was inconclusive: 0.126 µM [inhibitor, full curve, poor fit].
For CCc1nc2ccccc2n1CCCCOc1ccc(Cl)cc1, the Potency was inconclusive: 14.1 µM [inhibitor, single point].
With CCOC(=O)c1nnn(-c2nonc2N)c1-c1ccc(F)cc1 the “activity, negative = inhibition” value was inactive: -0.302%.
In the case of Cc1cn([C@H]2C[C@H](O)[C@@H](CNCc3ccccc3OCCCN3CCOCC3)O2)c(=O)[nH]c1=O, the “activity, negative = inhibition” value is reported as inactive: -0.46%.
For COc1cccc(C(=O)C(C#N)=C(SC)SC)c1, the Potency was inconclusive: 10 µM [inhibitor, partial curve, poor fit].
In the case of CNc1nc(NC#N)nc(SC)n1, the “activity, negative = inhibition” value is reported as inactive: -2.73%.
In the case of c1ccc(-c2ccc(OCCCNC3CCCC3)cc2)cc1, the Potency is reported as inconclusive: 35.5 µM [inhibitor, single point].
For COc1ccc(N2CCN(c3oc(-c4ccccc4C)nc3S(=O)(=O)c3ccccc3)CC2)cc1, the Potency was inconclusive: 4.47 µM [inhibitor, full curve].
For O=C(c1cc(S(=O)(=O)N2CCOCC2)ccc1Cl)N1CCC(Cc2ccccc2)CC1, the Potency was inconclusive: 0.398 µM [inhibitor, full curve, poor fit].
With O=C(O)CC(SCC(=O)Nc1ccc(Cl)c(S(=O)(=O)N2CCOCC2)c1)C(=O)O (configuration not stated) the “activity, negative = inhibition” value was inactive: 15.9%.
In the case of Oc1ccccc1/C=N/Nc1ncc(Br)cn1, the Potency is reported as inconclusive: 22.4 µM [inhibitor, single point].
In the case of CN1c2ccc(Cl)cc2C(=O)NC1c1ccc([N+](=O)[O-])s1 (configuration not stated), the Potency is reported as inconclusive: 35.5 µM [inhibitor, single point].
In the case of CC(C)(C)[C@@H]1COC(=O)[C@H](Cc2ccc(F)cc2)C/C=C\C[C@@H](CC(=O)N(CCO)Cc2ccccc2)C(=O)N1, the Potency is reported as inconclusive: 35.5 µM [inhibitor, partial curve, poor fit].
With CN1CCN(C(=O)c2cc(-c3ccccc3)on2)CC1 the “activity, negative = inhibition” value was inactive: -25.3%.
For CN(NS(C)(=O)=O)c1ncc(C(F)(F)F)cc1Cl, the “activity, negative = inhibition” value was inactive: -1.21%.
In the case of COc1ccc(-c2nc(Cn3c(SCc4cccc(F)c4)nc4cccnc43)c(C)o2)cc1, the Potency is reported as inconclusive: 20 µM [inhibitor, single point].
In the case of CCC(=O)NC(C)c1cc(Cl)c2cccnc2c1O (configuration not stated), the Potency is reported as active: 1.78 µM.
For COc1cccc(C(=O)NCC(c2ccc(N(C)C)cc2)N2CCc3ccccc32)c1OC (configuration not stated), the Potency was inconclusive: 0.112 µM [inhibitor, full curve, poor fit].
For COC(=O)c1cc(S(=O)(=O)Nc2cccc(-c3cnco3)c2)oc1C, the “activity, negative = inhibition” value was inactive: 1.82%.
In the case of O=C(CC1C(=O)NCCN1CC1CCCCC1)NCc1ccc(Cl)cc1 (configuration not stated), the Potency is reported as inconclusive: 35.5 µM [inhibitor, single point].
In the case of FC(F)(F)c1cccc(NC(=S)NCCc2ccccn2)c1, the Potency is reported as inconclusive: 3.98 µM [inhibitor, single point].
For O=C(O)CC1(CC(=O)Nc2ccc(F)c(Cl)c2)CCCCC1, the “activity, negative = inhibition” value was inactive: -17.2%.
For CC(C)c1ccc(C(=O)Nc2ccc(-c3nc4ccccc4s3)c(Cl)c2)cc1, the “activity, negative = inhibition” value was inactive: -12.8%.
With CSc1ccc(/C=N/n2c(Cc3ccc(Br)cc3)n[nH]c2=S)cc1 the Potency was inconclusive: 25.1 µM [inhibitor, single point].
In the case of O=C(NNc1ccccc1Br)C(O)(c1cccc(C(F)(F)F)c1)c1cccc(C(F)(F)F)c1, the Potency is reported as active: 7.94 µM.
With COc1cccc(-n2c(-c3ccco3)nc3c(cnn3-c3ccccc3C)c2=O)c1 the Potency was inconclusive: 17.8 µM [inhibitor, partial curve, poor fit].
For CC1Cc2ccccc2N1C(=O)CSc1nnc(Cc2ccccc2)n1CCc1ccccc1 (configuration not stated), the Potency was inconclusive: 35.5 µM [inhibitor, single point].
In the case of Fc1ccc(NC(=S)SCc2ccc3c(c2)OCO3)cc1F, the Potency is reported as inconclusive: 35.5 µM [inhibitor, single point].
For CCOC(=O)c1sc(NC(=O)c2ccccc2OC)nc1C, the “activity, negative = inhibition” value was inactive: 3.97%.
In the case of CCOc1ccc(OCCNC(=O)c2cc(C3CC3)nc3c2cnn3C(C)C)cc1, the Potency is reported as active: 12.6 µM.
For COc1ccc(NC(=O)/C(Cl)=C(/Cl)S(=O)Cc2ccccc2Cl)cn1 (configuration not stated), the Potency was active: 3.55 µM.
For Cc1ccccc1Nc1cc(C(=O)NC2CCC(C)CC2)c2ccccc2n1 (configuration not stated), the “activity, negative = inhibition” value was inactive: -19.1%.
In the case of Cc1nc(SCC(=O)N2CCCC2=O)nc(C)c1C, the “activity, negative = inhibition” value is reported as inactive: 20.3%.
With CCOC(=O)CS(=O)(=O)CC(=O)Nc1ccc([N+](=O)[O-])cc1OC the Potency was inconclusive: 22.4 µM [inhibitor, partial curve, poor fit].
In the case of Cc1nc2ccccc2nc1-c1csc(-c2ccccc2)n1, the Potency is reported as inconclusive: 35.5 µM [inhibitor, single point].
In the case of COC(C(=O)Nc1ccc(S(=O)(=O)Nc2cccc3ccccc23)cc1)c1ccccc1 (configuration not stated), the Potency is reported as inconclusive: 35.5 µM [inhibitor, single point].
In the case of COc1cc(C2C3=C(COC3=O)Oc3cc4c(cc32)OCO4)ccc1O (configuration not stated), the Potency is reported as active: 12.6 µM.
For O=S(=O)(c1ccc(Cl)cc1)N1CCN(c2nc(-c3cccs3)nc3ccccc23)CC1, the Potency was inconclusive: 3.16 µM [inhibitor, partial curve, poor fit].
With COc1ccc(CNc2oc(COc3ccccc3)nc2C#N)cc1 the Potency was inconclusive: 31.6 µM [inhibitor, single point].
With O=C(COc1ccc(C(=O)c2ccc(F)cc2)cc1)Nc1cccc(S(=O)(=O)N2CCOCC2)c1 the Potency was inconclusive: 35.5 µM [inhibitor, single point].
With O=C(Nc1ccc(F)cc1F)c1cc2ccc3cccnc3c2[nH]1 the “activity, negative = inhibition” value was inactive: -3.95%.
For Cc1ccccc1NC(=O)NC1(C(=O)NCC2CCCO2)CCCCC1 (configuration not stated), the “activity, negative = inhibition” value was inactive: -1.69%.

Reference: PubChem BioAssay AID588855 (National Center for Advancing Translational Sciences (NCATS), 2011)
% is scaled to controls: 0 for no effect and ±100 for the full control effect; potency is read from the fitted curve at half-maximal effect; tags tell the direction and shape of the fitted curve.
